Reference: PubChem BioAssay AID624330 (Southern Research Specialized Biocontainment Screening …, 2012)
About 2,100 (0.62%) of roughly 340,000 compounds were called active. The inconclusive results got no clear call from the source; some entries with a clear call stand among them for comparison.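 How the source made its calls: active means first-screen hits whose inhibition reached a set limit at any dose in the follow-up dose series; inconclusive means inhibition above the set first-screen limit but never retested; inactive means the rest.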

These compounds were tested against Rac GTPase-activating protein 1 (Homo sapiens) (UniProt Q9H0H5) (assay: blockers of MgcRacGAP-driven Rac1 GTP hydrolysis – biochemical, ADP Hunter fluorescence, primary and confirmatory, confirmation (AID 624330;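 further: fluorescence reports GDP produced by GAP-driven GTP hydrolysis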)). Conditions: MgcRacGAP-stimulated Rac1 GTP hydrolysis, at 30 µM, hits give high values, GST-tagged Rac1 F28L mutant substrate.
Sequence of UniProt Q9H0H5 (Q9H0H5 whole entry, looked up): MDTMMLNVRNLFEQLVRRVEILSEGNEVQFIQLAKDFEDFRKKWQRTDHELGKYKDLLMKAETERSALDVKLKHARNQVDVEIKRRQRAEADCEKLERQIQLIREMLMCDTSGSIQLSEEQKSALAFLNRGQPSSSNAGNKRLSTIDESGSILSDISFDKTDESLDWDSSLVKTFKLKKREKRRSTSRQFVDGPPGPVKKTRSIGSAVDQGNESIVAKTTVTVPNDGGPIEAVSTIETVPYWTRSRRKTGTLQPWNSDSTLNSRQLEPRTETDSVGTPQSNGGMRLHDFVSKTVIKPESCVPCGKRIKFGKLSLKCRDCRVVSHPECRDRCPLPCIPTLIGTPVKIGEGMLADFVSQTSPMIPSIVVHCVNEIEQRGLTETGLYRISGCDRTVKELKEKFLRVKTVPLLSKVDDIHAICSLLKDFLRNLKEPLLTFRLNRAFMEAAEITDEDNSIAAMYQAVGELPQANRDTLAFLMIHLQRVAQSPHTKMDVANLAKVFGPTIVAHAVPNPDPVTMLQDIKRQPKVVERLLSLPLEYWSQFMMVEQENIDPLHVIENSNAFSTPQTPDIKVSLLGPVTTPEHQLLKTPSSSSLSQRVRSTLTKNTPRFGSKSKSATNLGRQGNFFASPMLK

| SMILES | inhibition |
| --- | --- |
| CN1C(=O)C2C(c3ccc(N(C)C)cc3)NN(Cc3ccccc3)C2C1=O (centres undefined) | inconclusive: 35.5% |
| O=C(Nc1ccc(O)cc1)/C(=C/c1ccco1)NC(=O)c1ccccc1 | inconclusive: 49.7% |
| COc1ccc(NCc2ccccc2[N+](=O)[O-])cc1OC | inconclusive: 35.9% |
| COc1cccc(C(=O)Nc2ccc(N(C)C)cc2)c1OC | inconclusive: 38.2% |
| Clc1ccc(-c2ccc(-c3nn4c(-c5ccco5)nnc4s3)o2)cc1 | inconclusive: 32.4% |
| CCOc1cc(/C=C2\NC(=S)N(c3c(C)n(C)n(-c4ccccc4)c3=O)C2=O)ccc1O | inconclusive: 56.1% |
| c1coc(-c2nnc3sc(Cc4cccs4)nn23)c1 | inconclusive: 32.2% |
| CCOc1c(Br)cc(CNc2ccc(N3CCN(C(C)=O)CC3)cc2)cc1OC | inconclusive: 89.8% |
| COc1cc(/C=N/NC(=O)Cn2cnc3ccccc3c2=O)ccc1O | inconclusive: 62.9% |
| COc1cc(NC(=O)N2c3ccccc3Sc3ccccc32)c(C(=O)O)cc1OC | inconclusive: 53.9% |
| Cc1ccc2nc(C)c(C(=O)N/N=C/c3ccco3)cc2c1 | inactive: 3.04% |
| Cc1ccc(-c2ccc(=O)n(CC(=O)NCCN(CC(C)C)CC(C)C)n2)cc1 | inactive: 8.51% |
| O=c1[nH]c2ccccc2n2c(-c3ccccc3)nnc12 | inconclusive: 46.7% |
| O=C(CCc1c[nH]c2ccccc12)N1CCN(c2ccc(O)cc2)CC1 | inconclusive: 73% |
| C=CCc1ccc(OCCOCCN(C)C)c(OC)c1 | inactive: 11.5% |
| O=C1CC(c2ccc(O)c(O)c2)Oc2c1ccc(O)c2O (centres undefined) | inconclusive: 38.1% |
| CC1(C)Nc2ccc(O)cc2-c2c1ssc2=S | inconclusive: 53.6% |
| Cn1c(=O)c([N+](=O)[O-])c(NCc2ccccc2Cl)c2ccccc21 | inactive: 8.45% |
| CCSC(=O)N=Nc1ccc(O)cc1 | inconclusive: 32.7% |
| C=CCn1c(=S)[nH]c2scc(-c3ccco3)c2c1=O | inconclusive: 54.2% |
| C#CCOCCOCCOCCNc1nc(N2CCN(C(=O)CCCCCCCCCCNC(=O)[C@H](CCCCN)n3cc(C[C@@H](C)CC)nn3)CC2)nc(N2CCN(C(=O)CCCCCCCCCCNC(=O)[C@H](CCCCN)n3cc(C[C@@H](C)CC)nn3)CC2)n1 | inconclusive: 39.4% |
| O=C(Nc1ccc2c(c1)OCCO2)C1CC(O)CN1C(=O)Nc1ccccc1 (centres undefined) | inactive: 5.39% |
| COc1ccc(N2CCN(c3nc(Cl)nc(N4CCOCC4)n3)CC2)cc1 | inconclusive: 35.2% |

| SMILES | inhibition |
| --- | --- |
| COC(=O)/C=C/C(=O)Nc1ccc(O)c(Cl)c1 | inconclusive: 53.5% |
| CCC(=O)N1CCN(c2ccc(NC(=O)COc3ccccc3[N+](=O)[O-])cc2)CC1 | inconclusive: 36% |
| COc1cccc(CNC2CCCCCCC2)c1OC | inactive: 20.3% |
| CCOC(=O)CNc1c(-c2ccc(O)cc2)nc2ccc(Cl)cn12 | inconclusive: 77.4% |
| Cc1ccccc1-n1nc(C(=O)O)cc1-c1ccccc1 | inactive: 3.4% |
| S=c1[nH]nc(Nc2ccc(Cl)cc2)s1 | inconclusive: 49.2% |
| O=c1c2ccccc2[nH]c2ccc(O)cc12 | inconclusive: 96.5% |
| COc1cc(CN2CCc3ccccc3C2)cc([N+](=O)[O-])c1O | inconclusive: 34.3% |
| COc1ccc(CN2CCN(c3ncccn3)CC2)c(OC)c1 | inactive: 9.88% |
| O=C(C[n+]1ccc(CCSc2ccc(F)cc2)cc1)c1ccccc1 | inconclusive: 61.8% |
| COc1ccc(NC(=O)C2CCCN2c2ccc(OC)c(OC)c2)cc1OC (centres undefined) | inconclusive: 33% |
| CC1=NN(c2ccccc2)C(=O)/C1=C/c1cccs1 | inconclusive: 34.6% |
| COc1ccc(-c2oc3cc(OC)c(O)c(OC)c3c(=O)c2OC)cc1O | inconclusive: 67.4% |
| CCN(Cc1ccncc1)Cc1cn[nH]c1-c1ccc(OC)cc1F | inactive: -2.02% |
| CN(C)c1ccc(NC(=O)CSc2nnc(-c3cnccn3)n2C)cc1 | inconclusive: 37% |
| COc1ccc(-c2c(-c3ccsc3)oc(=O)c3cc(OC)c(OC)cc23)cc1 | inactive: 3.56% |
| CCN(CC)c1ccc(NC(=O)CSc2n[nH]c(-c3ccco3)n2)cc1 | inconclusive: 62.4% |
| CCOC(=O)c1ccc(NC(=O)COc2ccc(-n3cnnn3)cc2)cc1 | inactive: 11.5% |
| Cc1nn(CCc2nc(-c3ccco3)cs2)c2[nH]c(=O)cc(C(F)(F)F)c12 | inconclusive: 32.2% |
| CNC(=O)c1ccc(-c2sc3nc(N4CCOCC4)c4c(c3c2N)CCCC4)o1 | inconclusive: 134% |
| CCn1c(=O)n(CC)c2cc(N3CCCC3)c(NC(=O)c3ccc(C)cc3)cc21 | inconclusive: 50.8% |
| CC(=O)Nc1ccc(NC(=O)CC2Nc3cccc4cccc(c34)NC2=O)cc1 (centres undefined) | inconclusive: 35% |
| C=CCc1cc(C=O)cc(OCC)c1O | inactive: 4.85% |

| SMILES | inhibition |
| --- | --- |
| C#CCOCCOCCOCCNc1nc(N2CCN(C(=O)CCCCCCCCCCNC(=O)[C@H]([C@@H](C)CC)n3cc(CCCCCN)nn3)CC2)nc(N2CCN(C(=O)CCCCCCCCCCNC(=O)[C@H]([C@@H](C)CC)n3cc(CCCCN=C(N)N)nn3)CC2)n1 | inconclusive: 64.9% |
| CCOC(=O)c1cc(-c2ccc(/C=C3/C(=O)NC(=O)C(C#N)=C3C)o2)ccc1Cl | inconclusive: 32.3% |
| Nc1c(C(=O)N2CCOCC2)sc(=S)n1-c1ccccc1 | inactive: 11.6% |
| CCOc1cc(N2CCOCC2)c(OCC)cc1NC(=O)CN1CCc2ccccc2C1 | inconclusive: 33.7% |
| COc1ccccc1/C=N/NC(=O)CC(=O)Nc1ccc(Cl)c(Cl)c1 | inactive: 3.66% |
| CCOc1cc(-c2cc(-c3ccc(C)cc3)nc(N)c2C#N)ccc1O | inactive: 16.3% |
| CN1C(=S)N(c2cccnc2)C(=O)/C1=C\c1ccc(N(C)C)cc1 | inactive: 12.2% |
| CC1CCCN(C(=O)C2CCN(S(=O)(=O)c3ccc4c(c3)CC(C)N4C(=O)C3CC3)CC2)C1 (centres undefined) | inactive: -0.15% |
| CCCN1C(=O)S/C(=C\c2ccc(N3CCOCC3)o2)C1=O | inconclusive: 33.5% |
| COc1cc(CC(=O)NCc2ccc3c(c2)OCO3)cc(OC)c1OC | inactive: 4.17% |
| CN(C)c1ccc(/C=C/c2ccc3ccccc3n2)cc1 | inactive: 10.9% |
| COCc1cc(C)nc(SCC(=O)c2ccc(O)c(O)c2)c1C#N | inconclusive: 57.8% |
| COc1ccc(N2C(S)=C(C#N)C(=O)NC2c2ccc(OC)c(OC)c2)cc1 (centres undefined) | inactive: 29% |
| O=[N+]([O-])c1ccccc1S(=O)(=O)N1CCN(C2CCN(Cc3ccccc3)CC2)CC1 | inconclusive: 35.4% |
| CC1=C(C(=O)N2CCOCC2)CC(CC(=O)NC2CCCC2)C(=O)N1Cc1ccc(F)cc1 (centres undefined) | inactive: 14.4% |
| COc1cc(SSc2cc(OC)cc([N+](=O)[O-])c2N)c(N)c([N+](=O)[O-])c1 | inconclusive: 36.3% |
| Cc1sc2nc(CN3CCN(c4ccc(O)cc4)CC3)[nH]c(=O)c2c1C | inconclusive: 33% |
| N#Cc1ccc2sn(-c3ccccc3)c(=O)c2c1 | inconclusive: 35.5% |
| COc1cc(/C=N/NC(=O)CSc2ccccn2)ccc1O | inconclusive: 60.7% |
| O=C(COC(=O)c1ccc(Cl)c(S(=O)(=O)N2CCCCC2)c1)NCc1ccco1 | inactive: 5.55% |
| COc1ccc(NC2CCCN(C(=O)CSc3ccccc3)C2)cc1 (centres undefined) | inconclusive: 53.6% |
| Clc1ccc(C2Nc3cccc4cccc(c34)N2)c(Cl)c1 | inconclusive: 34.1% |
| C=C(C)C(=O)Nc1ccc(NC(C)C)cc1 | inconclusive: 60.7% |

| SMILES | inhibition |
| --- | --- |
| COc1cc(N)ccc1-c1cc2ccccc2oc1=O | inactive: 3.42% |
| Cc1cc(Cl)cc(Br)c1OCCCCn1cncn1 | inactive: 15.5% |
| CC(=O)NCC1CCCN(Cc2cn(-c3ccccc3)nc2-c2ccc3c(c2)OCO3)C1 (centres undefined) | inactive: -2.78% |
| CC(=O)N1CCN(c2ccc(NC(=O)c3ccc(Cl)cc3)cc2)CC1 | inactive: 4.31% |
| COc1cc(/C=C(\C#N)C(=O)N2CCc3ccccc32)ccc1O | inconclusive: 53.5% |
| CN(C)CC1CC/C(=C\c2ccc(O)cc2)C1=O (centres undefined) | inconclusive: 81.1% |
| COc1ccc(-c2cc3ccccc3n2CC(O)CNCCO)cc1 (centres undefined) | inconclusive: 38.5% |
| O=C1NC(=S)S/C1=C/c1ccc(N2CCOCC2)o1 | inconclusive: 61.5% |
| COc1cc2c(cc1NCc1ccccn1)oc1ccccc12 | inconclusive: 45% |
| COc1cc(/C=C2\COC/C(=C\c3ccc(O)c(OC)c3)C2=O)ccc1O | inconclusive: 83.2% |
| O=c1[nH]c(=O)c2nnc(N/N=C\c3ccc(O)cc3)nc2[nH]1 | inconclusive: 46.1% |
| CC(=O)N(C)c1ccc(NC(=O)Cc2cccs2)cc1 | inactive: -7.79% |
| COc1ccc(NC(=S)NCCSc2ccc(Cl)cc2)c(OC)c1 | inactive: -1.73% |
| COc1cc(/C=N/NC(=O)c2ccc3nc[nH]c3c2)ccc1O | inconclusive: 65.5% |
| COc1ccc(-n2sc3c(c2=S)-c2cc(OC)ccc2NC3(C)C)cc1 | inactive: -3.29% |
| Cc1ccccc1OCCn1cnc2c(N)ncnc21 | inactive: -13% |
| CCC(CO)Oc1cc(NCc2cccc(F)c2)c2ncn(C(C)C)c2c1 (centres undefined) | inactive: 6.74% |
| Cc1cc(S(=O)(=O)Nc2ccc(N(C)C)cc2)c(C)s1 | inconclusive: 47.3% |
| Brc1ccccc1OCCCN1CCOCC1 | inactive: 14.8% |
| COc1cc(/C=N/n2c(-c3ccccc3)n[nH]c2=S)ccc1O | inconclusive: 49.5% |
